# Assay results as given in the supplement of paper PMC8728848.
# The other results are listed elsewhere or left out.
# B1: PitA (Streptococcus oralis), G3F8D8 (protein)
# chain: MNIRFDFKKVQIIARRLVTLLAILFLCAPISLLNADSTTEPQTTLHKTITPISGQDDKYELSLDITSKLGTETQTDPLDVVLVADLSGSMQNQDVQSFDGRTISRIDALKNTLRGTNGRKGLIDTILSNSNNRLSMVGFGGKIDNKKVDQYWDGNKWRLFRPYWPYERMTKYYDGVSPWDDANTILGWSNNARAAKTAVYNMSIAGGNSIGTESGIGTGTNIGAGLTLANQLMGSARSNAKKVVILLSDGFANMVYDANGYTIYNYNNEDPNIETAPQWFWDRLNNNLNSLSYSLAPTLDGFYSIKFRYSNNVDSITSLQYYMRQHNASIPNEIFSANDEDQLRDSFKDITDKILPLGIHHVSIKDVLSKYVQLLPNGSSEFRVVKEKDGSSEILIENQVTFDTKTTSEGLVEVTAKFSPNYSLEDGARYVLKFTVTSSQEALDAIAGDKKLEAGDAEGSDVNKLYSNKGASVTYSYGIGNSQTKTKEYSDNPTFKPSDPLTVPVEVEWQGVTGARTVITADQPSNVELKLVQKNKNGGSDNQDYRKTNVNVSKNVSNETRNFEKVAKGYQYDLIAPDVPAFTKEIKNVGTESKPSFKVIYKQLPSLTIKKVLEAENNLNKEFRIKVKLTSPDSKPLNGTFGEITVVNGEAEIRVEKRKRWEGILSYLPRGTHYKVEEEAASTNGYHVTYENQEGDLNKDETSIVTNHKLPSLSVTKKVTGVFANLLKSFKITINIRDAQNSPLNGTYTATVNNKRTPLQFTNGRASIDLNKDQTIKIYGLPLDSHYTVEEESNSSRGYQVSYENQEGKLDGDKSATVTNNKNSVPETGVDFLSSTLMLGIILPLGGIFFTILLGYLVVHRRK
# Assays:
# Assay in all cases: glycan array binding signal (z-score within array); higher = stronger binding
# Settings in all cases: glycan notation: IUPAC condensed, linker removed
# [1] = target: Fuc(a1-3)[Gal(b1-4)]GlcNAc(b1-4)Gal(b1-4)[Fuc(a1-3)]GlcNAc
# Method in brief: (§1)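 The Consortium for Functional Glycomics database supplied 3228 glycan arrays, of which those lacking an available protein sequence were dropped. The binding signal, a within-array Z-score, was averaged across arrays of the same protein sequence and across linkers. Negative scores can be read as non-binding.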
# [2] = target: Fuc(a1-3)[Gal(b1-4)]GlcNAc(b1-4)Gal(b1-4)[Fuc(a1-3)]GlcNAc(b1-4)Gal(b1-4)[Fuc(a1-3)]GlcNAc
# Method in brief: as §1
# [3] = target: Fuc(a1-3)[Gal(b1-4)]GlcNAc(b1-6)GalNAc
# Method in brief: as §1
# [4] = target: Fuc(a1-3)[Gal(b1-4)]GlcNAc(b1-6)[Gal(b1-3)GlcNAc(b1-3)]Gal(b1-4)Glc
# Method in brief: as §1
# [5] = target: Fuc(a1-3)[Gal(b1-4)]GlcNAc(b1-6)[Neu5Ac(a2-3)Gal(b1-3)]GalNAc
# Method in brief: as §1
# [6] = target: Fuc(a1-3)[Gal(b1-4)]GlcNAc6S
# Method in brief: as §1
# [7] = target: Fuc(a1-3)[Gal3S(b1-4)]GlcNAc
# Method in brief: as §1
# [8] = target: Fuc(a1-3)[Gal3S(b1-4)]GlcNAc6S
# Method in brief: as §1
# [9] = target: Fuc(a1-3)[GalNAc(b1-4)]GlcNAc
# Method in brief: as §1
# [10] = target: Fuc(a1-3)[GalNAc(b1-4)]GlcNAc6S
# Method in brief: as §1
# [11] = target: Fuc(a1-3)[GalNAc3S(b1-4)]GlcNAc
# Method in brief: as §1
# [12] = target: Fuc(a1-4)GlcNAc
# Method in brief: as §1
# [13] = target: Fuc(b1-3)GlcNAc
# Method in brief: as §1
# [14] = target: Gal(a1-2)Gal
# Method in brief: as §1
# [15] = target: Gal(a1-3)Gal
# Method in brief: as §1
# [16] = target: Gal(a1-3)Gal(b1-3)GlcNAc
# Method in brief: as §1
# [17] = target: Gal(a1-3)Gal(b1-3)GlcNAc(b1-2)Man(a1-3)[Gal(a1-3)Gal(b1-3)GlcNAc(b1-2)Man(a1-6)]Man(b1-4)GlcNAc(b1-4)GlcNAc
# Method in brief: as §1
# [18] = target: Gal(a1-3)Gal(b1-3)GlcNAc(b1-3)GalNAc
# Method in brief: as §1
# [19] = target: Gal(a1-3)Gal(b1-3)GlcNAc(b1-6)GalNAc
# Method in brief: as §1
# [20] = target: Gal(a1-3)Gal(b1-3)[Fuc(a1-4)]GlcNAc(b1-2)Man(a1-3)[Gal(a1-3)Gal(b1-3)[Fuc(a1-4)]GlcNAc(b1-2)Man(a1-6)]Man(b1-4)GlcNAc(b1-4)GlcNAc
# Method in brief: as §1
# [21] = target: Gal(a1-3)Gal(b1-4)Glc
# Method in brief: as §1
# [22] = target: Gal(a1-3)Gal(b1-4)GlcNAc
# Method in brief: as §1
# [23] = target: Gal(a1-3)Gal(b1-4)GlcNAc(b1-3)GalNAc
# Method in brief: as §1
# [24] = target: Gal(a1-3)Gal(b1-4)GlcNAc(b1-6)GalNAc
# Method in brief: as §1
# [25] = target: Gal(a1-3)Gal(b1-4)[Fuc(a1-3)]GlcNAc
# Method in brief: as §1
# [26] = target: Gal(a1-3)Gal(b1-4)[Fuc(a1-3)]GlcNAc(b1-2)Man(a1-3)[Gal(a1-3)Gal(b1-4)[Fuc(a1-3)]GlcNAc(b1-2)Man(a1-6)]Man(b1-4)GlcNAc(b1-4)GlcNAc
# Method in brief: as §1
# [27] = target: Gal(a1-3)GalNAc
# Method in brief: as §1
# [28] = target: Gal(a1-3)[Gal(a1-4)]Gal(b1-4)GlcNAc
# Method in brief: as §1
# [29] = target: Gal(a1-4)Gal(b1-3)GlcNAc(b1-2)Man(a1-3)[Gal(a1-4)Gal(b1-3)GlcNAc(b1-2)Man(a1-6)]Man(b1-4)GlcNAc(b1-4)GlcNAc
# Method in brief: as §1
# [30] = target: Gal(a1-4)Gal(b1-4)Glc
# Method in brief: as §1
# [31] = target: Gal(a1-4)Gal(b1-4)GlcNAc
# Method in brief: as §1
# [32] = target: Gal(a1-4)Gal(b1-4)GlcNAc(b1-2)Man(a1-3)[Gal(a1-4)Gal(b1-4)GlcNAc(b1-2)Man(a1-6)]Man(b1-4)GlcNAc(b1-4)GlcNAc
# Method in brief: as §1
# [33] = target: Gal(a1-4)Gal(b1-4)GlcNAc(b1-3)Gal(b1-4)Glc
# Method in brief: as §1
# [34] = target: Gal(a1-4)GlcNAc
# Method in brief: as §1
# [35] = target: Gal(a1-6)Glc
# Method in brief: as §1
# [36] = target: Gal(b1-2)Gal
# Method in brief: as §1
# [37] = target: Gal(b1-3)Gal
# Method in brief: as §1
# [38] = target: Gal(b1-3)Gal(b1-4)GlcNAc
# Method in brief: as §1
# [39] = target: Gal(b1-3)Gal(b1-4)GlcNAc(b1-2)Man(a1-3)[Gal(b1-3)Gal(b1-4)GlcNAc(b1-2)Man(a1-6)]Man(b1-4)GlcNAc(b1-4)GlcNAc
# Method in brief: as §1
# [40] = target: Gal(b1-3)GalNAc
# Method in brief: as §1
# [41] = target: Gal(b1-3)GalNAc(a1-3)[Fuc(a1-2)]Gal(b1-4)Glc
# Method in brief: as §1
# [42] = target: Gal(b1-3)GalNAc(a1-3)[Fuc(a1-2)]Gal(b1-4)GlcNAc
# Method in brief: as §1
# [43] = target: Gal(b1-3)GalNAc(b1-3)Gal(a1-4)Gal(b1-4)Glc
# Method in brief: as §1
# [44] = target: Gal(b1-3)GalNAc(b1-4)Gal(b1-4)Glc
# Method in brief: as §1
# [45] = target: Gal(b1-3)GalNAc(b1-4)[Neu5Ac(a2-3)]Gal(b1-4)Glc
# Method in brief: as §1
# [46] = target: Gal(b1-3)GlcNAc
# Method in brief: as §1
# [47] = target: Gal(b1-3)GlcNAc(a1-3)Gal(b1-4)GlcNAc
# Method in brief: as §1
# [48] = target: Gal(b1-3)GlcNAc(a1-6)Gal(b1-4)GlcNAc
# Method in brief: as §1
# [49] = target: Gal(b1-3)GlcNAc(b1-2)Man(a1-3)[Gal(b1-3)GlcNAc(b1-2)Man(a1-6)]Man(b1-4)GlcNAc(b1-4)GlcNAc
# Method in brief: as §1
# [50] = target: Gal(b1-3)GlcNAc(b1-2)Man(a1-3)[Gal(b1-3)GlcNAc(b1-2)Man(a1-6)]Man(b1-4)GlcNAc(b1-4)[Fuc(a1-6)]GlcNAc
# Method in brief: as §1
# [51] = target: Gal(b1-3)GlcNAc(b1-2)Man(a1-3)[GlcNAc(b1-4)][Gal(b1-3)GlcNAc(b1-2)Man(a1-6)]Man(b1-4)GlcNAc(b1-4)GlcNAc
# Method in brief: as §1
# [52] = target: Gal(b1-3)GlcNAc(b1-2)[Gal(b1-3)GlcNAc(b1-6)]Man(a1-6)[Gal(b1-3)GlcNAc(b1-2)Man(a1-3)]Man(b1-4)GlcNAc(b1-4)GlcNAc
# Method in brief: as §1
# [53] = target: Gal(b1-3)GlcNAc(b1-3)Gal(b1-3)GlcNAc
# Method in brief: as §1
# [54] = target: Gal(b1-3)GlcNAc(b1-3)Gal(b1-4)Glc
# Method in brief: as §1
# [55] = target: Gal(b1-3)GlcNAc(b1-3)Gal(b1-4)GlcNAc
# Method in brief: as §1
# [56] = target: Gal(b1-3)GlcNAc(b1-3)Gal(b1-4)GlcNAc(b1-6)[Gal(b1-3)GlcNAc(b1-3)]Gal(b1-4)Glc
# Method in brief: as §1
# [57] = target: Gal(b1-3)GlcNAc(b1-3)Gal(b1-4)[Fuc(a1-3)]GlcNAc(b1-6)[Gal(b1-3)GlcNAc(b1-3)]Gal(b1-4)Glc
# Method in brief: as §1
# [58] = target: Gal(b1-3)GlcNAc(b1-3)GalNAc
# Method in brief: as §1
# [59] = target: Gal(b1-3)GlcNAc(b1-6)Gal(b1-4)GlcNAc
# Method in brief: as §1
# [60] = target: Gal(b1-3)GlcNAc(b1-6)GalNAc
# Method in brief: as §1
binder,measurement,setting,value
B1,glycan array binding signal (z-score),[1],0.05
same,glycan array binding signal (z-score),[2],-0.375
same,glycan array binding signal (z-score),[3],4.67
same,glycan array binding signal (z-score),[4],-0.739
same,glycan array binding signal (z-score),[5],0.046
same,glycan array binding signal (z-score),[6],0.782
same,glycan array binding signal (z-score),[7],-0.455
same,glycan array binding signal (z-score),[8],2.16
same,glycan array binding signal (z-score),[9],-0.019
same,glycan array binding signal (z-score),[10],-0.59
same,glycan array binding signal (z-score),[11],-0.108
same,glycan array binding signal (z-score),[12],-0.34
same,glycan array binding signal (z-score),[13],0.191
same,glycan array binding signal (z-score),[14],-0.212
same,glycan array binding signal (z-score),[15],-0.309
same,glycan array binding signal (z-score),[16],-0.011
same,glycan array binding signal (z-score),[17],3.83
same,glycan array binding signal (z-score),[18],1.07
same,glycan array binding signal (z-score),[19],-0.069
same,glycan array binding signal (z-score),[20],1.2
same,glycan array binding signal (z-score),[21],-0.425
same,glycan array binding signal (z-score),[22],-0.128
same,glycan array binding signal (z-score),[23],-0.028
same,glycan array binding signal (z-score),[24],-0.41
same,glycan array binding signal (z-score),[25],-0.592
same,glycan array binding signal (z-score),[26],1.4
same,glycan array binding signal (z-score),[27],-0.289
same,glycan array binding signal (z-score),[28],-0.208
same,glycan array binding signal (z-score),[29],1.42
same,glycan array binding signal (z-score),[30],-0.046
same,glycan array binding signal (z-score),[31],0.041
same,glycan array binding signal (z-score),[32],1.71
same,glycan array binding signal (z-score),[33],0.077
same,glycan array binding signal (z-score),[34],-0.318
same,glycan array binding signal (z-score),[35],0.157
same,glycan array binding signal (z-score),[36],-0.442
same,glycan array binding signal (z-score),[37],-0.7
same,glycan array binding signal (z-score),[38],-0.462
same,glycan array binding signal (z-score),[39],-0.561
same,glycan array binding signal (z-score),[40],-0.247
same,glycan array binding signal (z-score),[41],0.341
same,glycan array binding signal (z-score),[42],-0.606
same,glycan array binding signal (z-score),[43],0.303
same,glycan array binding signal (z-score),[44],-0.576
same,glycan array binding signal (z-score),[45],-0.464
same,glycan array binding signal (z-score),[46],-0.71
same,glycan array binding signal (z-score),[47],-0.324
same,glycan array binding signal (z-score),[48],-0.696
same,glycan array binding signal (z-score),[49],-0.097
same,glycan array binding signal (z-score),[50],-0.117
same,glycan array binding signal (z-score),[51],1.74
same,glycan array binding signal (z-score),[52],-0.137
same,glycan array binding signal (z-score),[53],-0.226
same,glycan array binding signal (z-score),[54],-0.108
same,glycan array binding signal (z-score),[55],-0.282
same,glycan array binding signal (z-score),[56],-0.571
same,glycan array binding signal (z-score),[57],-0.53
same,glycan array binding signal (z-score),[58],-0.204
same,glycan array binding signal (z-score),[59],-0.172
same,glycan array binding signal (z-score),[60],-0.442
